Laboratory results: PubChem BioAssay AID1963854 (Molecular Pharmacology Branch, DTP, NCI, 2024)
For part of its entries the source gives two or more results. This list holds those alone. There may be further records. The records of an entry are repeated measurements across runs, samples, wells, individuals or studies. Marks such as (2×) count equal records among those shown. A date in brackets names the month of the test.

System: 186277-243-T-J2-PDC complex spheroid viability
Test: Anticancer human tumor 186277-243-T-J2-PDC patient-derived colon adenocarcinoma cell line growth inhibition [POLQ]
Conditions: stronger effect = lower value
Method: Multicellular complex tumor spheroid response to Polymerase (POL) inhibitors (novobiocin, ART-558, RP6685) in combination with a variety of drugs and investigational agents in selected tumor cell lines
The POL inhibitors (novobiocin, ART-558, and RP6685) were evaluated both individually and in combination with standard of care and investigational anticancer small molecules within a complex spheroid model of solid tumors. . Complex spheroids include a stromal component modeled by human endothelial cells (HUVEC) and fibroblasts modeled by human mesenchymal stem cells (MSCs). The concentration ranges selected for each drug and investigational agent were based upon clinically achievable concentrations if the clinical Cmax of the agent was known.
Compounds. The drugs and investigational agents: novobiocin (NSC847541), ART-558 (NSC835418), RP-6685 (NSC848927), peposertib (NSC802822), ceralasertib (NSC780249), elimusertib (NSC800525), camonsertib (NSC841442), AZD-1390 (NSC803789), olaparib (NSC753686), talazoparib (NSC767125), rucaparib (NSC756644), sotorasib (NSC818433), MRTX-1133 (NSC836407), SN-38 (NSC673596), topotecan (NSC609699), epotoside (NSC141540), doxorubicin (NSC123127), gemcitabine (NSC613327), 5-fluorouracil (NSC19893), paclitaxel (NSC125973), vemurafenib (NSC761431), MSA-2 (NSC828583), SN-011 (NSC837082), adavosertib (NSC754352), prexasertib (NSC758257), carboplatin (NSC241240) and oxaliplatin (NSC266046), were obtained from the National Cancer Institute (NCI) Developmental Therapeutics Program Chemical Repository (21). The FDA-approved anticancer drug set is available from the Developmental Therapeutics Program at https://dtp.cancer.gov/organization/dscb/obtaining/. […] The stock solutions were prepared in dimethyl sulfoxide (DMSO, Sigma-Aldrich, St. Louis, MO, cat. D2650), except for the platinum compounds which were prepared in saline (Quality Biological, Gaithersburg, MD, cat. 114-055-101), at 800-fold the tested concentration and stored at -70 degrees C prior to their use. All drugs and investigational agents were tested over a range starting from a high concentration at or near the clinical Cmax and decreasing in half-log increments. If the clinical Cmax for an agent had not been determined, the highest concentration tested was 10 microM, except for SN-38, which was tested at a high concentration of 1 microM.
Cell Culture. All cells were maintained in an incubator at 37 degrees C and 5% CO2 with 95% humidity. The PDC lines were cultured according to standard operating procedures established by the NCI PDMR (https://pdmr.cancer.gov). Table 3 of the manuscript, lists the cell lines along with the number of the three cell types plated to form the mct-spheroids and media for tumor cell growth. […]
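Note: spheroids exposed to compounds for seven days; 100% = DMSO vehicle control viability.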

For `COC1C(OC(N)=O)C(O)C(Oc2ccc3c(O)c(NC(=O)c4ccc(O)c(CC=C(C)C)c4)c(=O)oc3c2C)OC1(C)C` (centres undefined), the viability, T/C (compound alone 1 µM) was 103 (3×), 93.3, 91.3, 94, 100, 108, 118, 106, 102, 90.6, 98.2%.
In the case of `COc1cccc2c1C(=O)c1c(O)c3c(c(O)c1C2=O)CC(O)(C(=O)CO)CC3OC1CC(N)C(O)C(C)O1` (centres undefined), the viability, T/C (compound alone 0.316 µM) is reported as 8.92%, 10.6% [2023-10] and 37.5% [2023-11].
In the case of `COc1cccc(OCCCN)c1-c1cc(Nc2cnc(C#N)cn2)n[nH]1`, the viability, T/C (compound alone 0.00316 µM) is reported as 7.29% [2023-10] and 35.3%, 42.5% [2023-11].
With `Nc1ccc(C#CCN(C(=O)Cc2ncc(C(F)(F)F)cc2C(F)(F)F)c2ccc(F)cc2)nn1` the viability, T/C (compound alone 10 µM) was 85, 94.5, 83.9, 88.9, 113, 98.9, 88.5, 86.3, 86.8, 81.2, 87.2, 79.1, 84.8%.
